According to the supplement of paper PMC4604168 (melanoma cell lines):
The list shows a part of the results. Many values rest on one well or one pass, so single values are uncertain.

How the values were obtained:
Assay in all cases: cell count relative to DMSO control; melanoma cells; higher = more viable cells
Conditions in all cases: library dose: low library concentration; 72 h
MZ2-MEL = tested on: MZ2-MEL
MeWo = tested on: MeWo
RPMI7951 = tested on: RPMI7951
RVH-421 = tested on: RVH-421
SkMel28 = tested on: SkMel28
SkMel2 = tested on: SkMel2
SkMel30 = tested on: SkMel30
UACC62 = tested on: UACC62
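Further: cell number obtained by counting DAPI-stained nuclei in high-throughput microscope images with image analysis software, screen run in 1,536-well plates.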

Compound	cell count (MZ2-MEL) [%]	cell count (MeWo) [%]	cell count (RPMI7951) [%]	cell count (RVH-421) [%]	cell count (SkMel28) [%]	cell count (SkMel2) [%]	cell count (SkMel30) [%]	cell count (UACC62) [%]
Cn1c(=O)n(-c2ccc(C(C)(C)C#N)cc2)c2c3cc(-c4cnc5ccccc5c4)ccc3ncc21 + OCc1c[nH]c2ccccc12 [Indole-3-carbinol] (first compound 0.004 µM, partner dose 0.8 µM)	99.9	94.1	89.3	105	88.5	87.6	102	92.1
Cn1c(=O)n(-c2ccc(C(C)(C)C#N)cc2)c2c3cc(-c4cnc5ccccc5c4)ccc3ncc21 + Cn1c(Nc2ccc(C(F)(F)F)cc2)nc2cc(Oc3ccnc(-c4ncc(C(F)(F)F)[nH]4)c3)ccc21 [CHIR265] (first compound 0.004 µM, partner dose 0.08 µM)	67.2	59	45.8	62.5	65.5	64.3	44.7	46.3
Cc1cc(Nc2cc(N3CCN(C)CC3)nc(/C=C/c3ccccc3)n2)n[nH]1 + Nc1ccn([C@@H]2O[C@H](CO)[C@@H](O)C2(F)F)c(=O)n1 [gemcitabine] (first compound 0.04 µM, partner dose 0.0004 µM)	90.6	101	96.4	109	99	97.1	128	91
COc1ccc(C2=N[C@@H](c3ccc(Cl)cc3)[C@@H](c3ccc(Cl)cc3)N2C(=O)N2CCNC(=O)C2)c(OC(C)C)c1 [Nutlin-3] + CC(C)C[C@H](NC(=O)[C@H](Cc1ccccc1)NC(=O)c1cnccn1)B(O)O [Bortezomib] (first compound 0.1 µM, partner dose 0.001 µM)	107	96.5	91.2	80.2	87.5	106	115	92.3
CC(C)C[C@H](NC(=O)[C@H](Cc1ccccc1)NC(=O)c1cnccn1)B(O)O [Bortezomib] + C[C@@H](Oc1cc(-c2cnn(C3CCNCC3)c2)cnc1N)c1c(Cl)ccc(F)c1Cl [Crizotinib] (first compound 0.001 µM, partner dose 0.2 µM)	73.8	72.3	69.7	59.5	81	94.6	66.5	71.4
Cc1cn(-c2cc(NC(=O)c3ccc(C)c(Nc4nccc(-c5cccnc5)n4)c3)cc(C(F)(F)F)c2)cn1 [nilotinib] + C[C@]1(O)C[C@@H](c2nc(-c3ccc4ccc(-c5ccccc5)nc4c3)c3c(N)nccn32)C1 [OSI906] (first compound 0.2 µM, partner dose 0.4 µM)	85.4	90.4	86.9	103	81.4	83.5	70.6	84
Cc1cn(-c2cc(NC(=O)c3ccc(C)c(Nc4nccc(-c5cccnc5)n4)c3)cc(C(F)(F)F)c2)cn1 [nilotinib] + NC1(c2ccc(-c3nc4ccn5c(=O)[nH]nc5c4cc3-c3ccccc3)cc2)CCC1 [MK2206] (first compound 0.2 µM, partner dose 0.4 µM)	90.8	87.7	92.6	97.5	81.9	89.9	91	81.9
COc1ccc(C2=N[C@@H](c3ccc(Cl)cc3)[C@@H](c3ccc(Cl)cc3)N2C(=O)N2CCNC(=O)C2)c(OC(C)C)c1 [Nutlin-3] + Cn1c(=O)n(-c2ccc(C(C)(C)C#N)cc2)c2c3cc(-c4cnc5ccccc5c4)ccc3ncc21 [NVP-BEZ235] (first compound 0.1 µM, partner dose 0.004 µM)	102	89.1	100	118	82	90.4	89.4	81.3
Cc1cn(-c2cc(NC(=O)c3ccc(C)c(Nc4nccc(-c5cccnc5)n4)c3)cc(C(F)(F)F)c2)cn1 [nilotinib] + CC(C)C[C@H](NC(=O)[C@H](Cc1ccccc1)NC(=O)c1cnccn1)B(O)O [Bortezomib] (first compound 0.2 µM, partner dose 0.001 µM)	95.3	94	99.8	75.9	109	83.3	96.9	84.9
COc1ccc(C2=N[C@@H](c3ccc(Cl)cc3)[C@@H](c3ccc(Cl)cc3)N2C(=O)N2CCNC(=O)C2)c(OC(C)C)c1 [Nutlin-3] + Nc1ncn([C@H]2C[C@H](O)[C@@H](CO)O2)c(=O)n1 [decitabine] (first compound 0.1 µM, partner dose 0.1 µM)	83.9	96.1	92.2	74.8	81.4	92.7	118	75.4
Cc1cn(-c2cc(NC(=O)c3ccc(C)c(Nc4nccc(-c5cccnc5)n4)c3)cc(C(F)(F)F)c2)cn1 [nilotinib] + O=C(O)[C@@H]1[O][Sb](=[O])([O][Sb]2(=[O])[O][C@H]([C@H](O)CO)[C@H](O)[C@H](C(=O)O)[O]2)[O][C@H]([C@H](O)CO)[C@@H]1O [stibogluconate] (first compound 0.2 µM, partner dose 2 µM)	90.7	102	81.6	91.7	104	93.5	93.3	117
Cc1cn(-c2cc(NC(=O)c3ccc(C)c(Nc4nccc(-c5cccnc5)n4)c3)cc(C(F)(F)F)c2)cn1 [nilotinib] + CC(=O)c1c(C)c2cnc(Nc3ccc(N4CCNCC4)cn3)nc2n(C2CCCC2)c1=O [palbociclib] (first compound 0.2 µM, partner dose 0.04 µM)	78.1	83.2	71.1	90.5	100	82.2	71.7	79.9
Cc1cn(-c2cc(NC(=O)c3ccc(C)c(Nc4nccc(-c5cccnc5)n4)c3)cc(C(F)(F)F)c2)cn1 [nilotinib] + Cn1c(Nc2ccc(C(F)(F)F)cc2)nc2cc(Oc3ccnc(-c4ncc(C(F)(F)F)[nH]4)c3)ccc21 [CHIR265] (first compound 0.2 µM, partner dose 0.08 µM)	97.7	75	73.7	78.6	65.9	94.7	54.1	53.5
Cn1c(=O)n(-c2ccc(C(C)(C)C#N)cc2)c2c3cc(-c4cnc5ccccc5c4)ccc3ncc21 + C[C@]1(c2nc3c(C(N)=O)cccc3[nH]2)CCCN1 [Veliparib] (first compound 0.004 µM, partner dose 1.4 µM)	97	79.5	73.7	102	79.6	85.2	80.5	82.2
Cn1c(=O)n(-c2ccc(C(C)(C)C#N)cc2)c2c3cc(-c4cnc5ccccc5c4)ccc3ncc21 + C[C@@H](Oc1cc(-c2cnn(C3CCNCC3)c2)cnc1N)c1c(Cl)ccc(F)c1Cl [Crizotinib] (first compound 0.004 µM, partner dose 0.2 µM)	106	81.4	96	109	88.5	89.4	71.5	110
Cc1cc(Nc2cc(N3CCN(C)CC3)nc(/C=C/c3ccccc3)n2)n[nH]1 + O=C(O)[C@@H]1[O][Sb](=[O])([O][Sb]2(=[O])[O][C@H]([C@H](O)CO)[C@H](O)[C@H](C(=O)O)[O]2)[O][C@H]([C@H](O)CO)[C@@H]1O [stibogluconate] (first compound 0.04 µM, partner dose 2 µM)	91.1	99.4	103	89.9	89.3	99.5	107	93.4
Cc1cc(Nc2cc(N3CCN(C)CC3)nc(/C=C/c3ccccc3)n2)n[nH]1 + Cc1nc(Nc2ncc(C(=O)Nc3c(C)cccc3Cl)s2)cc(N2CCN(CCO)CC2)n1 [dasatanib] (first compound 0.04 µM, partner dose 0.004 µM)	84.5	89.6	79.5	88.9	77.6	97.9	89.7	79.9
Cc1cc(Nc2cc(N3CCN(C)CC3)nc(/C=C/c3ccccc3)n2)n[nH]1 + CC(=O)c1c(C)c2cnc(Nc3ccc(N4CCNCC4)cn3)nc2n(C2CCCC2)c1=O [palbociclib] (first compound 0.04 µM, partner dose 0.04 µM)	76.3	80.3	78.6	80	87.7	83.8	77.7	86.9
Cc1cn(-c2cc(NC(=O)c3ccc(C)c(Nc4nccc(-c5cccnc5)n4)c3)cc(C(F)(F)F)c2)cn1 [nilotinib] + CS(=O)(=O)CCNCc1ccc(-c2ccc3ncnc(Nc4ccc(OCc5cccc(F)c5)c(Cl)c4)c3c2)o1 [lapatinib] (first compound 0.2 µM, partner dose 0.8 µM)	91.8	90.5	74.9	98.8	82.2	109	89.8	98.1
Cc1cn(-c2cc(NC(=O)c3ccc(C)c(Nc4nccc(-c5cccnc5)n4)c3)cc(C(F)(F)F)c2)cn1 [nilotinib] + C=CCNC1=C2C[C@@H](C)C[C@H](OC)[C@H](O)[C@@H](C)/C=C(\C)[C@H](OC(N)=O)[C@@H](OC)/C=C\C=C(/C)C(=O)NC(=CC1=O)C2=O [Tanespimycin] (first compound 0.2 µM, partner dose 0.002 µM)	88.3	105	69.1	82.7	105	84.2	114	91.8
Cn1c(=O)n(-c2ccc(C(C)(C)C#N)cc2)c2c3cc(-c4cnc5ccccc5c4)ccc3ncc21 + Nc1cccc2c1CN(C1CCC(=O)NC1=O)C2=O [lenalidomide] (first compound 0.004 µM, partner dose 1 µM)	96.7	83.6	80.9	75	91.8	83.7	87.4	84.3
